From the supplement of paper PMC10126150
Values marked as one replicate rest on one cluster of the flow cell; about a third of the high ones do not repeat.

System: ATP
Assay: switch fluorescence ratio, 500 uM ATP over buffer (Cy3 cluster intensity, sum of 5 cycles each) (fold (ratio)); higher = stronger signal-on switching upon ATP binding; sequences stand for … in TCGTCGGCAGCGTCAGATGTGTATAAGAGACAGTTTTTTTTTTTTTTTTTTTTTTTTT…TC
Settings: aptamer strand: ATP DNA aptamer (quencher-CACCTGGGGGAGTATTGCGGAGGAAGG + anchor), 100 nM annealed; ATP concentration: 500 uM; one replicate
Procedure, shortened: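 Imaging in selection buffer was followed by imaging after 15 min with 500 uM ATP at 22 °C, for Cy3-labelled switching-strand clusters annealed to 100 nM quencher-labelled ATP aptamer on a modified Illumina MiSeq flow-cell. Five of these buffer/ATP cycles ran, separated by NaOH stripping and re-annealing. The fluorescence ratio per cluster is summed target-cycle over summed buffer-cycle Cy3 intensity, averaged per switch-domain sequence; clusters outside 100-1000 RFU were removed.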
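Further: ATP exposure 15 min at 22 °C before imaging.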

| Sequence | switch fluorescence ratio |
| --- | --- |
| ATATATACC | 1.05 |
| ACACTCCGTT | 1.01 |
| AGTGATATCT | 1.03 |
| CGTCGAATCG | 0.976 |
| CGGTCCAAAA | 1.02 |
| CGCGTCGGAA | 1.03 |
| GCACTTCCTG | 1.01 |
| AGACTTCCGT | 1.09 |
| ATTAATGGTG | 1.03 |
| CAAGGATCGG | 0.983 |
| GAACCGGATT | 1.15 |
| GATCTCCCGT | 1.03 |
| TCAATCTGCA | 1.02 |
| ACTGGACGGC | 1.46 |
| TACGATGGAA | 1.02 |
| GGGAAGCCTG | 1.01 |
| TACTCTCAGA | 1.02 |
| CAAGGCGGAG | 0.967 |
| GTAACCGGCA | 1.06 |
| GGTCGAAGTT | 1.03 |
| AACTATAGTC | 0.983 |
| ATTTACTTTT | 1.03 |
| TTCTGACCGT | 1.05 |
| CACTACGTTT | 1.01 |
| ATAGGGGCTG | 1.08 |

| Sequence | switch fluorescence ratio |
| --- | --- |
| CCAGTGGTCT | 0.973 |
| GCCAACCTGA | 1.11 |
| AAATAGAACA | 1.05 |
| GGGAATCTAT | 0.999 |
| AGCTTTTGTA | 0.985 |
| ATCGTCAATT | 0.964 |
| AGGGTCGTTA | 1.02 |
| CTAATTACAC | 1.05 |
| TAATTCAGA | 1.02 |
| ATAATTGAGG | 1.03 |
| GGCTTCAACG | 1.03 |
| TAGCAGAAAG | 0.961 |
| CCCAAAGGAC | 1.2 |
| GGAGAGGGAT | 0.982 |
| AAGTAAGTTA | 0.983 |
| CTAGCCGCCT | 0.885 |
| CACGTGCCCG | 1.06 |
| GGATATGTCC | 0.992 |
| ATACAGGGTT | 1.09 |
| CCATGTGGGT | 1.03 |
| CAAACTATTG | 0.978 |
| CAGGGCGCAG | 1.01 |
| GTAGCGTATT | 1.03 |
| TCACATGGGG | 1.01 |
| TCTGGTCAAC | 1.02 |

| Sequence | switch fluorescence ratio |
| --- | --- |
| AGCGACTTTA | 1.03 |
| GAGTCTACGC | 0.969 |
| AGTGCTGTAC | 1.26 |
| CTACAACGTG | 0.995 |
| AACCGCCAAT | 2.54 |
| TGGATGTCGA | 0.974 |
| TTTTCTATCA | 1.01 |
| CGATCGGAGA | 1.14 |
| AGGGACCAAG | 0.948 |
| ATCAGTTGTA | 0.986 |
| TACGGAGTT | 1.02 |
| GCCATTCGCG | 1.04 |
| GTGACGGGGA | 0.991 |
| ATTCATGACA | 1.06 |
| GAATACGCCC | 1.9 |
| AGGACTGTAG | 1.02 |
| TGCATTGGCT | 1 |
| GTCGTTGATG | 1 |
| AAGACTCAT | 1.04 |
| TCAGTTTAGT | 1.02 |
| GTCCTCTTTC | 0.968 |
| AAGCGGATCA | 1.02 |
| TGAGTCCGCT | 3.84 |
| AAGAGGTAGC | 1.22 |
| CAGCGCGCCG | 0.975 |

| Sequence | switch fluorescence ratio |
| --- | --- |
| GGTTTGGGCC | 0.951 |
| GTCGGAGGGA | 0.975 |
| AAATCGGGTC | 1.09 |
| ATAACTAGGA | 0.992 |
| TAGTTTGTTG | 0.978 |
| CCTATGAGAT | 1.03 |
| GGGGGTATC | 1.07 |
| CGTCGCGCGG | 1.06 |
| CTCGTTCTTG | 1.01 |
| TAGCATGCCC | 1.09 |
| GGATACAGGA | 1.04 |
| TCGTTGGTAC | 1.24 |
| CATGTCCACG | 1.01 |
| CCGGTCATGA | 0.983 |
| AATACGGGAA | 1.03 |
| ACATAACTT | 1.17 |
| TAGTTATACC | 1.01 |
| AAATGCATTC | 1.03 |
| CGCTGTGGCA | 0.996 |
| TTTGTATAAT | 0.981 |
| TGTTGTGAAA | 0.953 |
| AAGTAGAACA | 0.994 |
| AGACGGCCCA | 1.04 |
| AACTACGGTG | 1.17 |
| AGACCGAAGC | 1.37 |

| Sequence | switch fluorescence ratio |
| --- | --- |
| AAAACTACGG | 1.31 |
| TCAGCATAAC | 4.64 |
| CTCTAATAAT | 1 |
| AGTATCGGCG | 0.918 |
| GCGCGACTAA | 1.26 |
| GTTTCATTAG | 1.02 |
| TATTACGGGC | 0.962 |
| GGTCTATCGC | 1 |
| AGGATGTAAG | 0.992 |
| GTATACCTTC | 1.22 |
| TTCTCAGTTA | 0.982 |
| TGGGTCATCA | 1.02 |
| ACTTATTTG | 1.02 |
| GTATTAAGCC | 1.03 |
| CGGGCACGGG | 1.01 |
| TTCAGTCAAG | 0.966 |
| AACAGCTCGG | 1.02 |
| TAGGGCTTA | 0.961 |
| CCCCGGTCGG | 1.15 |
| ATTGTGCTAT | 1.01 |
| GGTTCAGCA | 1.02 |
| TCTAATTAGG | 1.02 |
| CTCAGACACG | 1.05 |
| GGGCTTCG | 1.02 |
| TACATGGCAT | 0.975 |

| Sequence | switch fluorescence ratio |
| --- | --- |
| GGCTGTGCGT | 0.97 |
| ATAAAGGGC | 1.01 |
| TCGAATCCCG | 1.03 |
| TGAAAAGACT | 0.939 |
| GCTGCTTATG | 0.999 |
| CGCAAGGAAG | 1.12 |
| TCGTGCTGT | 0.996 |
| CGGGGTTGAT | 0.945 |
| TACTGAATCT | 1.05 |
| TGTTCGCATA | 1.44 |
| ATTCTTAGTG | 0.952 |
| CGGCGCTCC | 1.46 |
| TTCTCCTAGC | 1.28 |
| AGCCAGTCGG | 0.987 |
| ATGCTTTCCG | 0.963 |
| TTACACTTTT | 0.923 |
| TGGGAGGCGC | 0.983 |
| GCGTTAAAGA | 1.01 |
| TGATTCACTC | 0.981 |
| TAGGTCGGAT | 1.03 |
| CGAGCAGATA | 2.28 |
| TGACGAAGAT | 1.05 |
| CATTCCAAGA | 1.1 |
| TCTATTGGGT | 1.02 |
| CGGAAGGAAA | 1.05 |

| Sequence | switch fluorescence ratio |
| --- | --- |
| CCTAGCGCAT | 3.56 |
| CGTTGTAGAG | 0.985 |
| GTGATTGTTA | 1.01 |
| ATAGGCGCGA | 0.957 |
| TCAATCATCT | 0.993 |
| CTTATTTACG | 1.02 |
| CAAGAATCCC | 1.11 |
| GGGGTTGTT | 0.992 |
| AATAAACAGT | 0.986 |
| ATCAGCGGGA | 1 |
| CGATCGGGA | 0.992 |
| GGGCAAAAGG | 0.982 |
| TTCCCGTAGC | 1.19 |
| CTGCCGGCAA | 1.49 |
| TAACATAGAG | 1.01 |
| GATTGCGGCC | 1.08 |
| CCAGGGATGT | 1.1 |
| TCGCAGCCTA | 1.22 |
| AGGCGGTTGA | 1.01 |
| ACACCATCCG | 1.13 |
| GCATACAGGG | 1.08 |
| GCGTGGTGT | 1.05 |
| GCTTCTATAG | 1.04 |
| TAGAAGGCAT | 1.02 |
| TCTTCGTCAC | 1.71 |

| Sequence | switch fluorescence ratio |
| --- | --- |
| TTGCCCCGGG | 0.98 |
| AGAGCGTAGT | 0.986 |
| GCAGGGGAG | 0.989 |
| GATAGGATGT | 1.02 |
| AAGCATCTGT | 1.01 |
| TGCAAGACAT | 1.16 |
| TACGAGATAG | 1.2 |
| ACTCACAGCT | 1.42 |
| AAGAGCCATT | 1 |
| GGCTAGCCGT | 0.973 |
| ATTATTAAAG | 1.04 |
| TACTAGGTTG | 1.06 |
| ATCGAGGCTT | 1 |
| AAATAAGTAC | 1.22 |
| GGAGAAATCC | 1.21 |
| TACCAGCCCT | 1.05 |
| ACATCGTGGC | 0.985 |
| CGTCAAAATC | 1.94 |
| GTATATGTG | 0.999 |
| AGCCTTAAGT | 1.03 |
| TAATTTGCTG | 0.958 |
| CGAGTCCCGT | 1.01 |
| ATGTGAATTT | 0.978 |
| TGGATTGGAC | 0.985 |
| CAACCTTTTA | 1.02 |
